From a compilation of properties of binary mixtures (doi:10.1016/j.molliq.2022.120410)
Some of these densities may be calculated back from excess volumes.

Assay: xn = mol fraction of the nth substance listed
Conditions: 101.3 kPa

OCCOCCO + CC[NH3+].O=[N+]([O-])[O-]
x2 = 0
Conditions | mass density [kg/m3]
298.1 K | 1112.6
308.1 K | 1105.5

CC[NH3+].O=[N+]([O-])[O-] + OCCOCCO
mass density [kg/m3]
Conditions | 298.1 K | 308.1 K | 318.1 K
x1 = 0.0488 | 1119.8 | 1112.7 | 1105.6
x1 = 0.0983 | 1126.3 | 1119.3 | 1112.4
x1 = 0.197 | 1138 | 1131.4 | 1124.7
x1 = 0.2961 | 1148.1 | 1141.7 | 1135.2
x1 = 0.3955 | 1157.2 | 1150.9 | 1144.6
x1 = 0.4954 | 1166.3 | 1160 | 1153.8
x1 = 0.5955 | 1174.9 | 1168.7 | 1162.5
x1 = 0.6961 | 1183.7 | 1177.5 | 1171.3
x1 = 0.797 | 1192.6 | – | 1180.2
x1 = 0.8983 | 1200.8 | 1194.6 | 1188.5
x1 = 1 | – | 1202.9 | 1196.8
